Data as given in PubChem BioAssay AID493208 (National Center for Advancing Translational Sciences (NCATS), 2011).
The whole screen tested about 44,000 compounds, of which about 340 (0.77%) were called active. Inconclusive results (about 5%) are left out. Calls follow the shape of the dose curve; as a rule, active = well fitted inhibition curve with a large enough effect; inconclusive = small, poorly fitted or top-dose-only effect; inactive = flat fitted curve, though single readings scatter. Some of the results follow.

Test: Acumen qHTS Assay for Inhibitors of the mTORC1 Signaling Pathway in MEF (Tsc2-/-, p53-/-) Cells: Sytravon; also: nearly all actives have a fitted effect of over 50% in size;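 as to activity change, negative = inhibition: plate controls were DMSO for no effect and rapamycin for full effect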
Settings: phospho-rpS6 immunofluorescence/PI, 24 h; series mostly up to 38.3 µM; activity change, negative = inhibition: at the top concentration
In short: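 Cell-based qHTS: Tsc2-/- p53-/- MEF, 24 h cpd, 37 °C; fix/perm, anti-phospho-S6 Alexa-488 + PI; Acumen 488 nm scan; pS6/PI ratio, % positive cells; rapamycin 7.5 nM = inhibition ref; PI count = viability.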
Potency is read from the fitted curve at half-maximal effect.

| SMILES | activity change, negative = inhibition | Potency |
| --- | --- | --- |
| O=c1c(-c2cc(-c3ccccc3)nc3c2COc2ccccc2-3)coc2ccc(Cl)cc12 | inactive: -4.69% | – |
| CCc1ccc(NC(=O)C2CCCN(c3nnc(C)c4c(C)n(-c5ccccc5)nc34)C2)cc1 (centres undefined) | inactive: -5.6% | – |
| O=C(Nc1cc(Cl)ccc1Cl)c1cc(S(=O)(=O)N2CCc3ccccc3C2)ccc1F | inactive: 8.41% | – |
| COc1ccc(OC)c(C(=O)CN2C(=O)N(c3ccc(C)cc3)S(=O)(=O)c3ccccc32)c1 | inactive: -0.375% | – |
| Cc1ccc(CNS(=O)(=O)c2ccc3c(c2)CC(C)N3C(=O)C2CCC2)cc1 (centres undefined) | inactive: 0% | – |
| O=C(Cn1c(-c2cccs2)cc2ccccc21)N1CCN(c2ccc(F)cc2)CC1 | inactive: 0.184% | – |
| COC(=O)c1c(-c2cccs2)csc1NC(=O)c1ccc(C)cc1 | inactive: 0.0397% | – |
| COc1ccccc1NC(=O)Cn1c(=O)n(CC2CCC(C(=O)NCCc3ccccc3)CC2)c(=O)c2ccccc21 (centres undefined) | inactive: -16.8% | – |
| CCOC(=O)CSc1nc2sc3c(c2c(=O)n1-c1ccc(OC)cc1)CC(C(C)C)OC3 (centres undefined) | inactive: -4.11% | – |
| Cc1cc(NC(=O)c2cc(-c3ccc(Cl)c(Cl)c3)on2)n(-c2ccccc2)n1 | inactive: 6.84% | – |
| CCOc1ccc(CNC(=O)C2CCN(C(=O)N3CC(CC)Oc4ccc(C)cc43)CC2)cc1OC (centres undefined) | inactive: -19.7% | – |
| Cc1cc(Br)ccc1NC(=O)c1c(C)oc2ncnc(N3CCCCC3)c12 | inactive: -7.98% | – |
| Cc1ccccc1N1CC(c2nc3ccccc3n2Cc2ccc(Br)cc2)CC1=O (centres undefined) | inactive: 4.53% | – |
| COCCNC(=O)CN1C(=O)COc2ccc(S(=O)(=O)N3CCCC3)cc21 | inactive: -3.31% | – |
| CCN(CC)CCOC(=O)c1ccc(NC(=O)c2cc3cc(OC)ccc3oc2=O)cc1 | inactive: 0.943% | – |
| Cc1nnc(SCC(=O)Nc2ccc(N(C)C)cc2)[nH]c1=O | inactive: -1.46% | – |
| CCc1ccc(NC(=O)Cn2c(=O)n(CCCC(=O)NCCc3ccc(OC)c(OC)c3)c(=O)c3ccccc32)cc1 | inactive: 0.21% | – |
| Cc1ccccc1NC(=O)CCn1nc(-c2ccccc2)c2ccccc2c1=O | inactive: -12.5% | – |
| CCOc1ccc(Sc2cc(C(=O)NCc3ccccc3Cl)c3ccccc3n2)cc1 | inactive: -0.552% | – |
| Cc1c(Cl)cccc1-n1nc(C)c2c(C)cc(=O)n(CC(=O)N3CCCc4ccccc43)c21 | inactive: 2.55% | – |
| Cc1cc2oc3c(c(=O)c2cc1C)C(c1ccc(C(C)C)cc1)N(c1nc(C)c(C)s1)C3=O (centres undefined) | inactive: 4.22% | – |
| CCCNC(=O)C1CCN(c2nc3ccc(C)cc3[nH]2)CC1 | inactive: -0.731% | – |
| CCCOc1ccc(CNC(=O)C2CCN(C(=O)c3sccc3-n3cccc3)CC2)cc1 | inactive: -13.3% | – |
| COc1ccc(-c2nc3ccccc3n3c(-c4ccc(OC)cc4)c4c(=O)n(C)c(=O)n(C)c4c23)cc1 | inactive: 2.55% | – |

| SMILES | activity change, negative = inhibition | Potency |
| --- | --- | --- |
| Cc1ccc(CNC(=O)CCCN2C(=O)CCn3nc(-c4cccn4C)cc32)cc1 | inactive: 0.555% | – |
| CCOC(=O)c1ccc2c(c1)N(Cc1ccc(F)cc1Cl)C(=O)c1ccccc1S2 | inactive: 3.56% | – |
| Cc1cnc(=O)[nH]c1SCC(=O)Nc1cc(C(F)(F)F)ccc1Cl | inactive: 2.65% | – |
| CCN1CCN(c2cc(C)c3cc(NC(=O)/C=C/c4ccc(C)cc4)ccc3n2)CC1 | – | active: 18.5 µM |
| COc1cccc(NC(=O)N(Cc2cn(C)c3ccccc23)C2CCCCCC2)c1 | inactive: -6.4% | – |
| Cc1cccc(C(=O)Nc2ccc(N3CCC(N4CCCCC4)CC3)c(C(=O)O)c2)c1 | inactive: -4.91% | – |
| COc1cc(CNc2ccc3[nH]c(=O)[nH]c3c2)cc(Br)c1OCc1ccccc1F | inactive: -9.08% | – |
| Cc1cccc(CN2CCN(CC(=O)Nc3c(C)cccc3C)S2(=O)=O)c1 | inactive: -2.89% | – |
| Cc1ccc(C)n1-c1nnc(N2CCCC(C(=O)NCc3cccc(Br)c3)C2)s1 (centres undefined) | inactive: -11.6% | – |
| NC1=NC(c2cc(F)cc(F)c2)n2c(nc3ccccc32)N1 (centres undefined) | inactive: 0.839% | – |
| CC1=C(C(=O)NCc2ccc(Cl)cc2)C2(CCC(C)CC2)OC1=O (centres undefined) | inactive: 1.13% | – |
| Cc1ccc(CNC(=O)CCc2c(C)nc3c4c(C)cc(C)nc4nn3c2C)cc1 | inactive: -0.334% | – |
| Cc1ccc(Cl)cc1NC(=O)CC1Sc2ccccc2NC1=O (centres undefined) | inactive: -13.6% | – |
| CCCCOc1cccc(C(=O)N(Cc2ccc(Br)o2)C2CCS(=O)(=O)C2)c1 (centres undefined) | inactive: -0.942% | – |
| NC(=O)CSc1oc(-c2cccs2)nc1S(=O)(=O)c1ccc(Br)cc1 | inactive: 0% | – |
| Cc1cc(F)ccc1NC(=O)C1CCN(S(=O)(=O)c2ccc3c(c2)CCCC(=O)N3)CC1 | inactive: -1.61% | – |
| O=C(Nc1cccc(Cl)c1)C1CCN(S(=O)(=O)Cc2ccccc2)CC1 | inactive: -6.02% | – |
| COC(=O)c1ccc(NC(=O)N2CCN(c3nnc(C)c4c(C)n(-c5ccccc5)nc34)CC2)cc1 | inactive: 7.79% | – |
| O=C(Cn1c(=O)c(C(F)(F)F)nc2ccccc21)Nc1ccc(Br)cc1F | inactive: 0.989% | – |
| COc1ccc(S(=O)(=O)N2CCN(c3ccccc3)CC2)cc1-c1noc(C)n1 | inactive: -0.582% | – |
| Cc1ccccc1Cn1cc(CCC(=O)NCc2cccc(Br)c2)c2ccccc21 | inactive: -19.6% | – |
| O=C(c1cnc2c(c1)COc1ccccc1-2)c1ccccc1O | inactive: -15.1% | – |
| CC(C)(C)NC(=O)CSc1nc(-c2ccc(F)cc2)cc(C(F)(F)F)n1 | inactive: -0.664% | – |
| COc1ccc(S(=O)(=O)NCC(c2ccco2)N2CCN(c3ccc(F)cc3)CC2)cc1 (centres undefined) | inactive: -1.49% | – |

| SMILES | activity change, negative = inhibition | Potency |
| --- | --- | --- |
| CC(C)c1cnc2c(c1SCC(=O)c1ccccc1)c(=O)n(C)c(=O)n2C | inactive: 0.295% | – |
| O=C(NCc1ccccc1)c1ccc2c(c1)N(Cc1ccccc1)C(=O)c1ccccc1S2(=O)=O | inactive: 3.12% | – |
| CCOC(=O)Cn1c(=O)n(C2CCCCC2)c2nc(-c3ccc(OC)cc3)nc(C(N)=O)c21 | inactive: 1.3% | – |
| Cc1cc(C)cc(NC(c2nnc(-c3cccc(F)c3)o2)c2ccc(F)cc2Cl)c1 (centres undefined) | inactive: -21% | – |
| COc1ccc(Cc2nc3ccc(C(=O)NCCc4ccc(OC)c(OC)c4)cc3o2)cc1 | inactive: -8.97% | – |
| Cc1cc(C)c(S(=O)(=O)Nc2cc(Cl)c3oc4c(c3c2)C(=O)CCC4)cc1C | inactive: 3.72% | – |
| Cn1c(=O)n(C)c2cc(CNCc3ccccc3)ccc21 | inactive: -0.899% | – |
| Cc1ccc(CNS(=O)(=O)c2cc(Br)cc3c2N(C(=O)C2CC2)CC3)cc1 | inactive: -2.58% | – |
| CCOc1ccc(C(=O)Nc2ccc(-c3nnc4n3CCCCC4)cc2)cc1OCC | inactive: 5.12% | – |
| Cc1ccc(Cn2c(=O)n(Cc3ccccc3)c(=O)c3c(C)c(C)sc32)cc1 | inactive: 2.71% | – |
| Cc1ccc(CNC(=O)C(=O)NCC(c2ccco2)S(=O)(=O)c2ccc(C)cc2)cc1 (centres undefined) | inactive: -1.89% | – |
| CC(C)(C)C(=O)Nc1nc2nc(-c3ccccc3)cc(=O)n2[nH]1 | inactive: -0.787% | – |
| CCCCNC(=O)CN1C(=O)c2c(c3ccccc3n2C)C1c1ccc(OC)cc1 (centres undefined) | inactive: -1.99% | – |
| Cc1ccc2oc(-c3cccc(NC(=O)c4ccc(N5CCC(C)CC5)c([N+](=O)[O-])c4)c3)nc2c1 | inactive: 4.32% | – |
| Cc1oc(-c2ccc(Cl)cc2)nc1CN1CCCC(C(=O)NCCc2ccccc2)C1 (centres undefined) | inactive: 3.73% | – |
| CCc1cccc(C)c1NC(=O)c1cc(S(=O)(=O)N2CCC3(CC2)OCCO3)ccc1F | inactive: -0.951% | – |
| COc1ccc(C2CC(=O)c3cc(-c4nc(-c5cccc([N+](=O)[O-])c5)cs4)c(=O)n(-c4ccc(F)cc4)c3C2)cc1 (centres undefined) | inactive: -13.7% | – |
| CC(=O)c1ccc(NC(=O)CSc2c(C(C)C)cnc3c2c(=O)n(C)c(=O)n3C)cc1 | inactive: -0.582% | – |
| Cc1ccc(S(=O)(=O)N2CCCc3cc(NS(=O)(=O)c4ccc(C)c(C)c4)ccc32)cc1 | inactive: 0% | – |
| O=C(Cn1c(=O)n(Cc2ccc(C(=O)NCc3ccc4c(c3)OCO4)cc2)c(=O)c2ccccc21)Nc1ccc(F)cc1F | inactive: -11.2% | – |
| Cc1c(-c2nnc(SCC(=O)Nc3ccc(Br)cc3)o2)nnn1-c1ccc(F)cc1 | inactive: -0.995% | – |
| COc1ccc(C2(N3CCN(c4cccc(C)c4C)CC3)C(=O)c3ccccc3C2=O)cc1 | inactive: -14.9% | – |
| O=C(CS(=O)(=O)c1cccc2nsnc12)N1CCN(c2ccccc2)CC1 | inactive: -7.3% | – |
| CCOc1ccc(CNCCSc2nnnn2C)cc1OC | inactive: 2.85% | – |

| SMILES | activity change, negative = inhibition | Potency |
| --- | --- | --- |
| COc1ccc(-c2nc(C)c(CCNS(=O)(=O)c3ccc(F)cc3)s2)cc1OC | inactive: -16.7% | – |
| COC(=O)c1ccccc1NC(=O)c1cn2c3c(ccc(Cl)c3c1=O)OC(C)C2 (centres undefined) | inactive: 2.01% | – |
| CC(C)c1ccc(CN(Cc2ccco2)c2cnc(S(C)(=O)=O)nc2C(=O)Nc2ccccc2)cc1 | inactive: -0.986% | – |
| CCCCNC(=O)C1CCN(c2nc3ccc(C)cc3[nH]2)CC1 | inactive: 4.55% | – |
| Cc1ccc(NC(=O)Cn2c(=O)oc3cc(S(=O)(=O)N4CCCC4)ccc32)cc1F | inactive: -2.4% | – |
| Cc1nc2ccc(S(=O)(=O)CCC(=O)Nc3ccccc3C)cc2s1 | inactive: -16.2% | – |
| CCOC(=O)c1ccc(NC(=O)C2CCCN(c3ncnc4onc(C)c34)C2)cc1 (centres undefined) | inactive: -9.34% | – |
| COc1ccccc1N1CCN(CCCNC(=O)Cn2ncc3c([nH]c4ccccc43)c2=O)CC1 | inactive: -8.85% | – |
| O=C(CC1NCCNC1=O)Nc1cccc(F)c1 (centres undefined) | inactive: 1.84% | – |
| Cc1ccc2ncc3c(-c4ccccc4)nn(CC(=O)NC4CCCCC4)c3c2c1 | inactive: -0.0135% | – |
| COc1ccc(NC(=O)CSC2=Nc3ccccc3C3=NC(CCC(=O)NCc4ccco4)C(=O)N23)cc1 (centres undefined) | inactive: -1.14% | – |
| COc1ccccc1CNC(=O)C(=O)NCC(c1ccc2c(c1)OCO2)N1CCOCC1 (centres undefined) | inactive: -18.9% | – |
| CCc1ccc(CN2CCc3nc(Nc4ccc5c(c4)OCCO5)ncc3C2)cc1 | inactive: 0% | – |
| CCc1ccc(CNc2nc3nc(C)c(Cc4ccccc4)c(=O)n3[nH]2)cc1 | inactive: 3.38% | – |
| CCc1ccc(-c2nc(SCC(=O)NCCOC)c(-c3ccc(C)cc3)[nH]2)cc1 | inactive: -5.35% | – |
| CC(=O)c1cccc(NC(=O)C2=CC(c3ccco3)=NS(=O)(=O)N2C)c1 | inactive: -1.48% | – |
| COc1ccc(Nc2nnc(-c3ccc(C)c(S(N)(=O)=O)c3)c3ccccc23)cc1 | inactive: 9.28% | – |
| COc1ccc(CCNc2oc(COc3ccc(Cl)cc3)nc2C#N)cc1OC | inactive: 7.51% | – |
| CCc1cccc(C)c1NC(=O)c1cnn(-c2ccc(F)cc2)c1-n1cccc1 | inactive: -1.44% | – |
| CSc1nn(Cc2cccc(F)c2)c(N(C(C)=O)C(C)=O)c1S(=O)(=O)c1ccccc1 | inactive: 4.44% | – |
| Cc1cccc2sc(N3CCN(C(=O)c4ccco4)CC3)nc12 | inactive: 0.436% | – |
| CCOc1ccc(S(=O)(=O)Nc2ccc(-c3ccc(N4CCCC4)nn3)cc2)cc1 | inactive: -0.333% | – |
